# Results: PubChem BioAssay AID1468 (National Center for Advancing Translational Sciences (NCATS), 2008)
# Out of some 280,000 compounds screened, about 1,100 (0.39%) were called active. Inconclusive means that the source gave no clear call. Such entries were picked first, then a sample of the others. Calls follow the shape of the dose curve; as a rule, active = well fitted inhibition curve with a large enough effect; inconclusive = small, poorly fitted or top-dose-only effect, or effect the other way; inactive = flat fitted curve, though single readings scatter. Potencies of inconclusive entries are left out as doubtful fits.
# Target: Microtubule-associated protein tau (Homo sapiens) (UniProt P10636)
# Assay: qHTS for Inhibitors of Tau Fibril Formation, Fluorescence Polarization; also: nearly all actives have a fitted effect of over 55% in size
# Conditions: K18 P301L tau heparin fibrillization, Alexa594 FP, 6 h; series mostly up to 57.7 µM
# Summary of the method: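 Human K18 P301L fragment (15 uM unlabeled plus 0.24 uM Alexa 594-labeled) in 100 mM sodium acetate pH 7 with compound, aggregation induced by 20 uM heparin for 6 hr at 37 C. ThT (30 uM) added for 1 hr, then Alexa 594 FP read.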
# % is scaled to controls: 0 for no effect and ±100 for the full control effect; potency is read from the fitted curve at half-maximal effect; tags tell the direction and shape of the fitted curve.
# Sequence of UniProt P10636 (P10636 whole entry, looked up): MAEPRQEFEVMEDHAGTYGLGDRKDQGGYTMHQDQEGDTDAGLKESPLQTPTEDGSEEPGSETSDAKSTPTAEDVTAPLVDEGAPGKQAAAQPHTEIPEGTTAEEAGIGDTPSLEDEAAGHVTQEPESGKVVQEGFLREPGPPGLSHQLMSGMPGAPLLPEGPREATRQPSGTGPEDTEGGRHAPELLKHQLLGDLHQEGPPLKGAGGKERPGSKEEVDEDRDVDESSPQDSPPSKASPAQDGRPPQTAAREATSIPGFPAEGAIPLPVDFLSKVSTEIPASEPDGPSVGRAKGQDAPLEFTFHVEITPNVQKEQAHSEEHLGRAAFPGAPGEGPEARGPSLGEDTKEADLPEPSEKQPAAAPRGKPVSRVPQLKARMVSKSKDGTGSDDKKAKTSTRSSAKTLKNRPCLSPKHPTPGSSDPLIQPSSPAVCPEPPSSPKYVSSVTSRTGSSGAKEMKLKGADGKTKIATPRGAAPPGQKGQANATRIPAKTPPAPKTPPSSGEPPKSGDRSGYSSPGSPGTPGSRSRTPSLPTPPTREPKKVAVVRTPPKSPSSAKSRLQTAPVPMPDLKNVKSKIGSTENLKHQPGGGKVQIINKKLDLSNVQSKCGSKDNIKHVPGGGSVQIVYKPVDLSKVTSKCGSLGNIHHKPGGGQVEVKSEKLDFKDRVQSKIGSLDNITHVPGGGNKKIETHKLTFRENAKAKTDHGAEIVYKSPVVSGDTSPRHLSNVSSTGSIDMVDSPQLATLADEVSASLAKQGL
Structure (SMILES),Potency,"activity, negative = inhibition"
Cc1c(NC2=C(Cl)C(=O)N(c3ccccc3)C2=O)c(=O)n(-c2ccccc2)n1C,"inconclusive [inhibitor, partial curve]",
CCCCCCC#Cc1cc(OC)c(OC)cc1C(N1CC(C)c2ccccc21)N1CC(C)c2ccccc21 (stereo not given),,inactive: 0.117% [at 11.6 µM]
CN(C)S(=O)(=O)c1cccc(-c2nn(-c3ccccc3)cc2/C=C(\C#N)c2nc3ccccc3[nH]2)c1,"inconclusive [inhibitor, single point]",
COc1ccc(NC(=O)CSc2nc(O)c(C/C=C/c3ccccc3)c(=O)[nH]2)cc1,inactive,
CCc1ccc(NC(=O)c2cnc3scc(C)n3c2=O)cc1,"inconclusive [inhibitor, partial curve]",
Cc1ccccc1Cn1cc(NC(=O)c2nn(C)cc2Cl)cn1,inactive,
O=C(Nc1ccc2nc(-c3ccco3)c(-c3ccco3)nc2c1)N1CCCCCC1,active: 14.1 µM,
CCc1ccc(NC(=O)CSc2nc(C)cc(COC)c2C#N)cc1,"inconclusive [inhibitor, single point]",
COc1ccc(CC(=O)NCc2ccc3c(c2)OCO3)cc1,inactive,
NC(=O)Cn1c(=O)n(C2CCCCC2)c(=O)c2c3c(sc21)CCCCC3,"inconclusive [inhibitor, single point]",
Cc1cc(C)c(C#N)c(SCC(=O)N2CCN(Cc3ccccc3)CC2)n1,inactive,
COc1ccc(N2Cc3cccc(C(=O)Nc4cccc(F)c4)c3C2=O)cc1,inactive,
COc1ccc(NC(=O)CCCn2c(=O)c3sccc3n(Cc3ccccc3C)c2=O)cc1,inactive,
Cc1noc2ncnc(NCc3ccc(Cl)cc3)c12,inactive,
Cc1cc(NS(=O)(=O)c2ccc(NC(=S)NC(=O)c3cccnc3)cc2)no1,inactive,
C/C(=N\NC(=O)COc1ccc(C)cc1[N+](=O)[O-])c1cccs1,inactive,
CCc1cccc2c(C(=O)CN3C(=O)NC(C)(c4cccc5ccccc45)C3=O)c[nH]c12 (stereo not given),"inconclusive [inhibitor, single point]",
COc1ccc(N2CCN(c3oc(/C=C/c4ccccc4OC)nc3C#N)CC2)cc1,"inconclusive [activator, full curve]",
O=C(Nc1ccc(C(=O)OCc2cc(=O)n3ccsc3n2)cc1)c1cccc(F)c1,"inconclusive [inhibitor, single point]",
O=C(Nc1nc(-c2ccco2)c(-c2ccco2)s1)C1CC(=O)N(c2ccc3c(c2)OCCO3)C1 (stereo not given),"inconclusive [inhibitor, partial curve]",
COc1ccc(C(=O)NC(=S)Nc2cccc(NC(=O)c3ccco3)c2)cc1[N+](=O)[O-],"inconclusive [inhibitor, single point]",
CCOc1ccc(NC(=O)c2c(NCc3cccs3)sc3c2CCCCC3)cc1,inactive,
Cc1cc(C)c2c(=O)n(CC(=O)Nc3cccc(Cl)c3C)sc2n1,active: 20 µM,
O=c1c2c3c(sc2n(CCN2CCOCC2)c(=O)n1Cc1ccco1)CCCCC3,inactive,

Structure (SMILES),Potency,"activity, negative = inhibition"
O=C(NC1c2ccccc2-c2ccccc21)c1ccco1,inactive,
COc1ccc(Cn2c(CCC(=O)Nc3ccc(OC)c(Cl)c3)nc3cccnc32)cc1,inactive,
CCOC(=O)c1ccc(NC(=O)c2nc[nH]c2C(=O)N[C@@H](CCCCNC(=O)OC(C)(C)C)C(=O)OC(C)(C)C)cc1,"inconclusive [inhibitor, partial curve]",
COc1ccc(C2Nc3ccccc3C(=O)N2Cc2ccco2)cc1COc1ccc([N+](=O)[O-])cc1 (stereo not given),inactive,
CC(C)(C)C1C/C(=C/c2ccco2)C(=O)/C(=C/c2ccco2)C1 (stereo not given),"inconclusive [inhibitor, single point]",
CCCCNC(=O)CCSc1nc(-c2ccc3c(c2)OCO3)cc(C(F)(F)F)n1,"inconclusive [inhibitor, single point]",
O=c1oc2ccc(Cl)cc2cc1-c1cn2c(n1)sc1ccccc12,inactive,
O=S1(=O)N=C(Nc2ccc(N3CCOCC3)cc2)c2ccccc21,"inconclusive [activator, single point]",
CCc1cccc(C)c1NC(=O)CN1C(=O)c2ccccc2Sc2ncccc21,inactive,
O=C(Nc1ccc(Cl)c([N+](=O)[O-])c1)Nc1nc2ccccc2s1,"inconclusive [inhibitor, partial curve]",
O=C(Nc1ccc2c(c1)CCC2)c1cc(S(=O)(=O)N2CCN(c3ccccc3)CC2)ccc1Cl,inactive,
O=C(/C=C/c1cccc(Cl)c1)Nn1c(-c2cccs2)nc2ccccc2c1=O,"inconclusive [inhibitor, partial curve]",
O=C(COc1ccc(Cl)cc1)Nc1ccc(-c2nc3cc(Cl)ccc3o2)c(O)c1,"inconclusive [inhibitor, single point]",
CC(/C=N/NC(=O)c1cc(-c2ccc(C)o2)[nH]n1)=C\c1ccccc1,"inconclusive [inhibitor, full curve]",
S=C(NCCc1ccccc1)N/N=C/c1cccc(Cl)c1Cl,"inconclusive [inhibitor, single point]",
COc1ccc(CNC(=O)c2cc3oc4ccccc4c3n2C)cc1OC,inactive,
CC(C)[C@H](NC(=O)c1ccccc1)C(=O)OCC(=O)N1CCN(C(=O)c2ccco2)CC1,"inconclusive [inhibitor, partial curve]",
CC(C)(C)c1ccc(Cn2cnc(-c3ccc([N+](=O)[O-])cc3)c2)cc1,"inconclusive [activator, partial curve]",
CCOC(=O)c1cnc(SC)nc1Sc1cc(Cl)ccc1Cl,"inconclusive [inhibitor, single point]",
Cc1cc2oc(C(=O)Nc3ccc(S(N)(=O)=O)cc3)c(C)c2cc1Cl,"inconclusive [inhibitor, single point]",
CCN(CC)c1ccc(/C=N/NS(=O)(=O)c2cccc([N+](=O)[O-])c2)cc1,"inconclusive [activator, partial curve]",
NC(=O)c1c(N)sc2c1CCCCC2,"inconclusive [inhibitor, single point]",
CC1(C)OC(=O)C(=NNc2ccc(Cl)cc2)C(=O)O1,inactive,
O=C(NCc1ccccc1)c1ccc2c(c1)N(Cc1ccc(F)cc1)CCS2,"inconclusive [activator, single point]",

Structure (SMILES),Potency,"activity, negative = inhibition"
COC(=O)N1[C@H](C)C=C[C@]1(Cc1ccccc1)C(=O)O,"inconclusive [inhibitor, single point]",
CCOc1ccc2nc(SCC(=O)c3cccs3)sc2c1,inactive,
CCN(C(=O)Cn1c(=O)n2nc(CCn3nc(C)cc3C)nc2c2ccccc21)c1cccc(C)c1,inactive,
O=C(Nc1ccc(F)c(Cl)c1)Nc1csc2ccccc12,"inconclusive [inhibitor, single point]",
COC(=O)c1ccc(NC(=O)NC(C)c2c(-n3cccc3)sc(C)c2C)cc1 (stereo not given),active: 17.8 µM,
C#CCOCCOCCOCCNc1nc(N2CCN(C(=O)[C@H](CCCCN)n3cc([C@@H](N)CO)nn3)CC2)nc(N2CCN(C(=O)[C@H](Cc3cc4ccccc4[nH]3)n3cc([C@@H](N)CC(C)C)nn3)CC2)n1,"inconclusive [inhibitor, single point]",
Cc1cccc(CNc2cc(-c3ccoc3)ncn2)c1,"inconclusive [inhibitor, partial curve]",
COc1ccc(NC(=O)c2c(NCc3cccs3)sc3c2CCCCC3)c(OC)c1,"inconclusive [inhibitor, single point]",
CN1CCN(C(=S)NCCc2ccccc2)CC1,inactive,
Cc1ccsc1C1NC(=O)c2c(sc3c2CCN(C)C3)N1 (stereo not given),"inconclusive [inhibitor, single point]",
C=CCNC(=O)c1ccccc1Cl,inactive,
COc1ccc(/C=C2\N=C(SC)SC2=O)cc1OC,inactive,
N#C/C(=C\C1=C(N2CCOCC2)C(=C/c2cccc([N+](=O)[O-])c2)/CC1)C(=O)Nc1ccccc1F,"inconclusive [inhibitor, partial curve]",
CCCOc1ccc(-c2nc(C#N)c(NCCCn3ccnc3)o2)cc1,"inconclusive [activator, partial curve, poor fit]",
COc1ccc2c(c1)-c1nc(/N=C/c3ccc(O)cc3)sc1CC2,"inconclusive [inhibitor, partial curve]",
Cn1c(=O)c2c(nc(NCc3ccccc3)n2C)n(C)c1=O,inactive,
CC(C)c1ccc(C2=NC(c3ccncc3)=Nc3ccc(F)cc3N2)cc1,inactive,
CCC1CCc2c(sc(NC(=O)C3c4ccccc4Oc4ccccc43)c2C(=O)OC)C1 (stereo not given),"inconclusive [inhibitor, partial curve]",
CC(C)c1ccc2oc(-c3ccc(Cl)c(NC(=O)Cc4ccccc4)c3)nc2c1,"inconclusive [inhibitor, single point]",
CCOC(=O)N1CCC(NC(=O)c2ccc3c(c2)N(Cc2ccc(Cl)cc2)C(=O)c2ccccc2S3(=O)=O)CC1,inactive,
Cc1ccc(C(=O)c2oc3ccccc3c2NC(=O)C(C)Oc2ccccc2Cl)cc1 (stereo not given),"inconclusive [inhibitor, partial curve]",
Cc1sc(-c2ccccn2)nc1OC(=O)c1cccc(Cl)c1Cl,"inconclusive [inhibitor, partial curve]",
